Reference: PubChem BioAssay AID588855 (National Center for Advancing Translational Sciences (NCATS), 2011)
Hit rate of the full screen: of about 410,000 compounds, about 5,000 (1.2%) were called active. The inconclusive results got no clear call from the source; some entries with a clear call stand among them for comparison. Calls come from the whole dose curve; as a rule, active = well fitted inhibition curve with a large enough effect; inconclusive = small, poorly fitted or top-dose-only effect; inactive = no such curve, though single readings can be large or run the other way. A potency beside an inconclusive call is a rough fit, not a confirmed value.
Potency is the fitted concentration of half-maximal effect; tags give direction and shape of the fitted curve.

Assay: qHTS for Inhibitors of TGF-b; note: nearly all actives have a fitted effect of over 65% in size
Conditions: HepG2 CAGA-GFP TGF-b/SMAD3 reporter, GFP fluorescence, 18 h, TGF-beta stimulated, 500 pg/mL final; series mostly up to 46.1 µM
Method in brief: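 Cell-based qHTS in HEPG2 carrying a CAGA-GFP Smad reporter; compounds added before 500 pg/mL final TGF-beta, 18 h incubation at 37 degrees C, GFP fluorescence quantified per cell by imaging cytometry.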
In the case of `COc1ccc(/C=C/C(=O)NC(=S)Nc2ccc(N3CCN(C(C)=O)CC3)cc2)cc1`, the Potency is reported as inconclusive: 3.55 µM [inhibitor, partial curve, poor fit].
In the case of `CCOc1ccccc1C1CC(=O)Nc2cc3c(cc21)OCCO3` (stereo unspecified), the Potency is reported as inconclusive: 20 µM [inhibitor, single point].
In the case of `O=C1NC(=O)C2(CCC(C3CCCCC3)CC2)N1` (stereo unspecified), the Potency is reported as inconclusive: 17.8 µM [inhibitor, partial curve, poor fit].
In the case of `c1ccc(COc2ncnc3c2ncn3CCCNC2CCN(Cc3ccccc3)CC2)cc1`, the Potency is reported as active: 14.1 µM.
In the case of `CCCCn1nnnc1NCc1ccc(N2CCCC2)cc1`, the Potency is reported as inconclusive: 7.08 µM [inhibitor, partial curve].
For `CC(=O)c1c(C)oc2ccc(NS(=O)(=O)c3ccc(C)cc3)cc12`, the Potency was “inactive”.
With `CCc1ccc(NC(=O)c2sc(-n3nc(C)c(CCC(C)C)c3C)nc2C)cc1` the Potency was “inactive”.
In the case of `O=C(/C=C/c1ccc(F)cc1)N1CCCN(C(=O)/C=C/c2ccc(F)cc2)CC1`, the Potency is reported as inconclusive: 11.2 µM [inhibitor, single point].
In the case of `COc1ccc(NC(=O)c2ccc3oc(=O)c(S(=O)(=O)c4ccc(F)cc4)cc3c2)cc1OC`, the Potency is reported as active: 11.2 µM.
For `O=C(c1ccc(CS(=O)Cc2ccc(Cl)cc2)o1)N1CCN(c2cccc(Cl)c2)CC1` (stereo unspecified), the Potency was inconclusive: 25.1 µM [inhibitor, single point].
With `CCOC(=O)Cc1ccc(NC(=O)N(Cc2ccc(OC)cc2)C2CCN(C(C)=O)CC2)cc1` the Potency was inconclusive: 3.55 µM [inhibitor, single point].
In the case of `CC/C(C)=N/Nc1nc2sc3c(c2c(=O)[nH]1)CC(C)(C)OC3`, the Potency is reported as inconclusive: 35.5 µM [inhibitor, single point].
For `COc1cccc(CNc2nn[nH]n2)c1OC`, the Potency was “inactive”.
With `O=C(NCC(c1cccnc1)N1CCN(c2ccccc2F)CC1)C1CCCCC1` (stereo unspecified) the Potency was inconclusive: 11.2 µM [inhibitor, single point].
In the case of `O=C(CSc1nnc(-c2ccc(Cl)cc2)n1-c1ccc(Cl)cc1)N/N=C/c1ccco1`, the Potency is reported as inconclusive: 15.8 µM [inhibitor, single point].
In the case of `O=C(c1ccc2c(c1)C(=O)N(CCCO)C2=O)c1ccc2c(c1)C(=O)N(CCCO)C2=O`, the Potency is reported as “inactive”.
In the case of `Cc1ccc(NC(=O)CNc2ccccc2CN(C)C2CCCCC2)cc1`, the Potency is reported as inconclusive: 22.4 µM [inhibitor, single point].
In the case of `CCCCOC(=O)n1ccc(C(=O)Nc2ccccc2OC)n1`, the Potency is reported as inconclusive: 35.5 µM [inhibitor, single point].
In the case of `Cc1ccc(-n2cnc3cc(C(=O)NCCC4=CCCCC4)ccc32)c(C)c1`, the Potency is reported as inconclusive: 14.1 µM [inhibitor, single point].
For `COC(=O)C1=C(C)OC(N)=C(C#N)C1c1cccnc1` (stereo unspecified), the Potency was “inactive”.
For `Cc1ccc(-c2cc3c(nn2)-c2ccccc2C3=O)cc1`, the Potency was inconclusive: 5.62 µM [inhibitor, single point].
With `COc1ccc2c(c1OC)C(=O)OC2Nc1nc2ccccc2s1` (stereo unspecified) the Potency was inconclusive: 35.5 µM [inhibitor, single point].
For `Cn1c(=O)c2c(nc(CN3CCc4ccccc4C3)n2Cc2cccc(Cl)c2)n(C)c1=O`, the Potency was inconclusive: 35.5 µM [inhibitor, single point].
In the case of `COc1ccc2[nH]c3c(c2c1)CCN1C(=O)C(CC(=O)NC/C=C(\C)CCC=C(C)C)C[C@H](C(=O)N(C(C)C)C(C)C)[C@@]31C` (stereo partly specified), the Potency is reported as active: 15.8 µM.
In the case of `COc1ccc(CCn2c(C)nc3c(c(=O)c4ccccc4n3C)c2=O)cc1`, the Potency is reported as inconclusive: 20 µM [inhibitor, partial curve, poor fit].
In the case of `CCn1cc(S(=O)(=O)N2CCN(Cc3cccc(Cl)c3)CC2)cn1`, the Potency is reported as inconclusive: 0.562 µM [inhibitor, partial curve, poor fit].
With `O=C(OCC(=O)N1CCN(c2ccccc2)CC1)c1ccc([N+](=O)[O-])s1` the Potency was inconclusive: 12.6 µM [inhibitor, partial curve].
With `CC(C)(C)NC(=O)CSc1nc2ccc(Nc3nc(N4CCOCC4)nc(N4CCOCC4)n3)cc2s1` the Potency was inconclusive: 35.5 µM [inhibitor, single point].
In the case of `COCCN1C(=O)N[C@@H](c2ccccc2)C(C(C)=O)=C1C`, the Potency is reported as inconclusive: 5.62 µM [inhibitor, single point].
In the case of `CN(C)C(=S)Nc1ccc(Cc2ccncc2)cc1`, the Potency is reported as inconclusive: 35.5 µM [inhibitor, single point].
In the case of `CC(=O)C[C@H](O)CC(=O)[C@H]1OC(=O)CCCCCCCCc2ccccc21`, the Potency is reported as inconclusive: 35.5 µM [inhibitor, single point].
In the case of `CCOC(=O)C1CCCN(CC(=O)c2c[nH]c3ccc(C)cc23)C1` (stereo unspecified), the Potency is reported as inconclusive: 11.2 µM [inhibitor, single point].
With `CCc1cccc(CC)c1NC(=S)NCCc1c(C)[nH]c2ccccc12` the Potency was inconclusive: 11.2 µM [inhibitor, partial curve, poor fit].
For `O=C(NN1C(=O)c2ccccc2NC1c1ccc([N+](=O)[O-])o1)c1ccccc1` (stereo unspecified), the Potency was inconclusive: 35.5 µM [inhibitor, single point].
With `CN1/C(=C\C(=O)Nc2ccc(F)cc2)C(C)(C)c2ccccc21` the Potency was “inactive”.
In the case of `Cc1ccc(C(=O)N2CCC3(CC2)Oc2ccc(Cl)cc2C(=O)C32CC(c3ccc(Cl)cc3)=NO2)s1` (stereo unspecified), the Potency is reported as “inactive”.
In the case of `CC(C)/C=N/NC(=O)c1cc(Br)ccc1O`, the Potency is reported as inconclusive: 3.16 µM [inhibitor, full curve].
In the case of `COc1ccccc1/C=C/CN1CCCC(CO)(Cc2cccc(Cl)c2)C1` (stereo unspecified), the Potency is reported as inconclusive: 35.5 µM [inhibitor, single point].
For `Cc1ccc(Nc2nc(-c3ccccc3)nc3ccccc23)cc1`, the Potency was inconclusive: 22.4 µM [inhibitor, single point].
With `CCCOc1ccc(NC(=O)CC2C(=O)N(CC)C(=S)N2CCCN2CCN(Cc3ccccc3)CC2)cc1` (stereo unspecified) the Potency was inconclusive: 35.5 µM [inhibitor, single point].
For `CCOC(=O)NC(Nc1ccc(OC)cc1)(C(F)(F)F)C(F)(F)F`, the Potency was inconclusive: 15.8 µM [inhibitor, single point].
For `COc1ccc(O)c(-c2cc(-c3ccc(F)cc3)n[nH]2)c1`, the Potency was inconclusive: 35.5 µM [inhibitor, single point].
In the case of `Cc1ccc(NC(=O)COC(=O)[C@H](C)N2C(=O)C3CC=CCC3C2=O)cc1S(=O)(=O)N(C)C` (stereo partly specified), the Potency is reported as inconclusive: 4.47 µM [inhibitor, partial curve, poor fit].
With `COc1ccc(C)cc1NC(c1nnc(-c2ccccc2)o1)c1ccc(F)cc1Cl` (stereo unspecified) the Potency was inconclusive: 11.2 µM [inhibitor, partial curve].
For `CCOC(=O)c1c(NC(=O)c2ccc(C)cc2)sc2c1CCCCC2`, the Potency was “inactive”.
In the case of `O=C(CN1CCN(C(=O)c2ccco2)CC1)Nc1ccc(Cl)c(C(F)(F)F)c1`, the Potency is reported as inconclusive: 1 µM [inhibitor, partial curve].
For `CCOc1cc(NC(=O)c2ccco2)c(OCC)cc1NC(=O)Cc1cccc(OC)c1`, the Potency was “inactive”.
In the case of `COc1cccc(OCC(O)CN2CCN(C(c3ccccc3)c3ccccc3)CC2)c1` (stereo unspecified), the Potency is reported as inconclusive: 17.8 µM [inhibitor, partial curve, poor fit].
In the case of `Cc1ccc(/C=C/C(=O)NCC2COc3ccccc3O2)o1` (stereo unspecified), the Potency is reported as inconclusive: 8.91 µM [inhibitor, partial curve].
For `O=C(CN1CCOCC1)N/N=C/c1ccc(-c2ccc(C(=O)O)cc2)o1`, the Potency was inconclusive: 7.08 µM [inhibitor, partial curve].
In the case of `CSc1nsc(SCC(=O)NCc2ccc(C)cc2)n1`, the Potency is reported as “inactive”.
With `N=c1ccn(Cc2c(Cl)cccc2Cl)cc1` the Potency was “inactive”.
In the case of `Cc1nn(-c2cccc(Cl)c2)c2c1C(c1cccnc1)C(C#N)=C(N)O2` (stereo unspecified), the Potency is reported as inconclusive: 35.5 µM [inhibitor, single point].
For `CCOC(=O)C1(C)CCN1C(=O)c1ccco1` (stereo unspecified), the Potency was “inactive”.
For `O=[N+]([O-])c1cc(Br)c(O)c(/C=N/Nc2nnnn2-c2cccc3ccccc23)c1`, the Potency was inconclusive: 12.6 µM [inhibitor, single point].
With `N#C/C(=C\c1cccs1)C(=O)c1ccccc1Cl` the Potency was inconclusive: 25.1 µM [inhibitor, single point].
For `COC(=O)C1C(c2ccccc2)C=CC(c2ccccc2)C1C(=O)O` (stereo unspecified), the Potency was “inactive”.
With `CCOC(=O)C1CCN(C(=O)c2cccc(S(=O)(=O)Nc3ccc(C)cc3C)c2)CC1` the Potency was “inactive”.
In the case of `CCOc1ccc(NC(=O)c2oc3ccccc3c2NC(=O)C(C)(C)C)cc1`, the Potency is reported as “inactive”.
For `Cc1ccc(C(=O)Nc2cccc(C(=O)N3CCOCC3)c2)cc1Cl`, the Potency was inconclusive: 14.1 µM [inhibitor, single point].
With `Cc1ccc(NC(=S)NC(=O)c2cncc(Br)c2)cc1Cl` the Potency was “inactive”.
With `Clc1ccc2c(c1)C1=C(C(c3ccncc3)O2)C(c2ccc(Br)cc2)n2ncnc2N1` (stereo unspecified) the Potency was active: 3.98 µM.
In the case of `Clc1ccc(-c2cc3ncc4c(n3n2)-c2ccccc2OC4)cc1`, the Potency is reported as inconclusive: 12.6 µM [inhibitor, partial curve, poor fit].
In the case of `CC(NNC(=S)N1CCCCCC1)c1ccc2ccccc2n1` (stereo unspecified), the Potency is reported as inconclusive: 0.891 µM [inhibitor, full curve].
With `COc1ccc2c(c1)[nH]c1c(=O)n(CCN3CCCC3)cnc12` the Potency was inconclusive: 1.58 µM [inhibitor, partial curve, poor fit].
For `O=c1oc2ccccc2c(NCc2ccc(Cl)cc2)c1[N+](=O)[O-]`, the Potency was inconclusive: 11.2 µM [inhibitor, partial curve, poor fit].
